The densities may have been worked out from excess volumes.
Test: xn = mol fraction of the nth substance listed
Details: 101 kPa

c1ccsc1 + N#C[C-](C#N)C#N.OCC[n+]1ccccc1
x2 = 0
Details | mass density [kg/m3]
293.15 K | 1064.4
298.15 K | 1058.5
308.15 K | 1046.7
313.15 K | 1040.7
318.15 K | 1034.8
323.15 K | 1028.7
328.15 K | 1022.5
338.15 K | 1010.2
343.15 K | 1003.9

CCCCCCCCCCCC[N+](C)(C)Cc1ccccc1.O=S(=O)([N-]S(=O)(=O)C(F)(F)F)C(F)(F)F + CCCCO
mass density [kg/m3]
Details | x1 = 0.1507 | x1 = 0.3015 | x1 = 0.4494 | x1 = 0.594 | x1 = 0.7485 | x1 = 0.9164 | x1 = 1
293.15 K | 1006.8 | 1092.4 | 1139.4 | 1169.2 | 1191.2 | 1208.9 | 1216.8
298.15 K | 1002.8 | 1088.4 | 1135.5 | 1165 | 1187.2 | 1205 | –
303.15 K | 998.8 | – | 1131.4 | 1161.2 | 1183.2 | 1201 | 1208.9
308.15 K | 994.7 | – | 1127.1 | 1158 | 1179.3 | 1197 | –
313.15 K | 990.6 | 1076.1 | 1123.3 | 1153.1 | – | 1193.1 | 1201
318.15 K | – | 1072.1 | – | 1149.1 | 1171.4 | 1189.2 | 1197.1
323.15 K | 982.4 | 1068 | 1115.3 | 1145.2 | 1167.4 | 1185.3 | 1193.2
328.15 K | 978.3 | 1063.9 | 1111.3 | 1141.2 | 1163.5 | – | 1189.2
333.15 K | – | 1059.8 | – | – | 1159.6 | 1177.5 | 1185.3
338.15 K | 970 | 1055.7 | 1103.3 | 1133.4 | – | 1173.6 | –
343.15 K | 965.8 | 1051.6 | 1099.3 | 1129.4 | – | 1169.7 | 1177.4
348.15 K | 961.6 | 1047.5 | 1095.2 | – | 1147.8 | 1165.7 | 1173.4

N#C[C-](C#N)C#N.OCC[n+]1ccccc1 + c1ccsc1
mass density [kg/m3]
Details | x1 = 0.4042 | x1 = 0.4996 | x1 = 0.6 | x1 = 0.7041 | x1 = 0.8044 | x1 = 0.901 | x1 = 1
293.15 K | 1149 | 1155.2 | 1160 | – | 1167.3 | 1170 | –
298.15 K | 1145 | 1151.5 | 1156.4 | 1160.5 | 1163.8 | – | 1170.4
303.15 K | 1141.4 | – | 1152.7 | 1156.9 | 1160.2 | – | 1167
308.15 K | 1137.6 | 1144 | 1149 | 1153.3 | 1156.7 | 1159.6 | 1163.5
313.15 K | 1133.8 | 1140.2 | 1145.4 | 1149.8 | 1153.2 | 1156.1 | 1160.1
318.15 K | 1130 | 1136.5 | 1141.8 | 1146.2 | – | 1152.7 | 1156.8
323.15 K | 1126.2 | 1132.8 | – | 1142.7 | 1146.3 | 1149.2 | 1153.4
328.15 K | 1122.5 | 1129.1 | 1134.6 | – | 1142.8 | – | 1150
333.15 K | 1118.7 | – | – | 1135.7 | 1139.4 | 1142.5 | 1146.7
338.15 K | – | – | 1127.5 | – | 1136 | 1139.1 | 1143.4
343.15 K | 1111 | – | 1123.9 | 1128.8 | – | 1135.8 | 1140.1
348.15 K | 1107.3 | 1114.2 | 1120.4 | 1125.3 | 1129.2 | 1132.4 | 1136.8

CCCCO + CCCCCCCCCCCC[N+](C)(C)Cc1ccccc1.O=S(=O)([N-]S(=O)(=O)C(F)(F)F)C(F)(F)F
x2 = 0
Details | mass density [kg/m3]
303.15 K | 802.1
318.15 K | 790.2
323.15 K | 785.9
328.15 K | 782.2
333.15 K | 777.8
338.15 K | 773.9
